# Measured values published in PubChem BioAssay AID493208 (National Center for Advancing Translational Sciences (NCATS), 2011).
# The whole screen tested about 44,000 compounds, of which about 340 (0.77%) were called active. Roughly 5% stayed inconclusive and do not appear here. Calls come from the whole dose curve; as a rule, active = well fitted inhibition curve with a large enough effect; inconclusive = small, poorly fitted or top-dose-only effect; inactive = flat fitted curve, though single readings scatter. The list shows a part of the results.
# Assay: Acumen qHTS Assay for Inhibitors of the mTORC1 Signaling Pathway in MEF (Tsc2-/-, p53-/-) Cells: Sytravon;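 note: plate controls were DMSO for no effect and rapamycin for full effect; nearly all actives have a fitted effect of over 50% in size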
# Details: phospho-rpS6 immunofluorescence/PI, 24 h; series mostly up to 38.3 µM; activity change, negative = inhibition: at the top concentration
# Procedure, shortened: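 Compounds act on Tsc2-/-, p53-/- fibroblasts carrying an empty vector for 24 h before fixation and dual staining for phospho-S6 and DNA (propidium iodide). Values are percentages of cells above a rapamycin-defined pS6/PI threshold.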
row,SMILES,"activity change, negative = inhibition"
1,Cc1cc(C)cc(-n2c(SCC(=O)N3CCCCC3)nc3c([nH]c4ccccc43)c2=O)c1,inactive: -8.22%
2,CC1CCN(S(=O)(=O)c2ccc3c(c2)oc(=O)n3CC(=O)NCc2ccc(F)cc2)CC1,inactive: -2.7%
3,CCOc1ccc(NC(=O)Cn2c(=O)n(Cc3ccco3)c(=O)c3oc4ccccc4c32)cc1,inactive: -3.61%
4,COc1ccc(NC(=O)c2oc3ccccc3c2NC(=O)c2cccc(F)c2)c(OC)c1,inactive: 5.62%
5,Cc1ccn2c(Nc3ccccc3C)c(-c3ccccn3)nc2c1,inactive: -8%
6,COCCCNC(=O)C1CCCN(C(=O)c2cnn(-c3ccc(F)cc3)c2-n2cccc2)C1 (stereo not given),inactive: 0.295%
7,Cc1cc(C)c(CSc2nnc(C)n3c2cc2occc23)c(C)c1,inactive: -10.9%
8,CCN(Cc1ccccc1)C(=O)c1nc(-c2cccc(F)c2)n2c1CCCCC2,inactive: -0.22%
9,O=C(NC1CCCCC1)c1cc(Nc2cccc(C(F)(F)F)c2)nc2ccccc12,inactive: -4.72%
10,COc1cc(C(=O)Nc2nc3nc(-c4ccccc4)cc(=O)n3[nH]2)cc(OC)c1OC,inactive: -6.25%
11,Cc1ccn2c(=O)cc(CSc3nnc(NC(=O)c4ccccc4Cl)s3)nc2c1,inactive: -3.39%
12,Cc1ccc(SCc2nc(-c3ccc(C(=O)NCc4ccc(Cl)cc4)cc3)oc2C)cc1,inactive: -1.63%
13,COc1ccc(CNC(=O)c2cc3c(=O)[nH]c4ccccc4c3s2)cc1,inactive: 0.459%
14,CCOC(=O)c1ccccc1NC(=O)CCOc1ccccc1,inactive: 3.96%
15,Cc1cccc(N2CCN(C(=O)NCc3noc4ccccc34)CC2)c1C,inactive: -14.4%
16,COc1ccccc1CNC(=O)C(=O)NCC(c1ccco1)S(=O)(=O)c1cccs1 (stereo not given),inactive: -9.23%
17,O=C(NC1CCCCC1)c1cc2c(Cl)nc3ccccc3c2s1,inactive: -8.48%
18,CCOc1ccc(NC(=O)C(NS(=O)(=O)c2cccc3nsnc23)c2ccccc2)cc1 (stereo not given),inactive: -21.5%
19,OCCCc1nc2ccccc2n1CCCCOc1ccccc1,inactive: -1.68%
20,Cc1cccc(-c2noc(CN(C(=O)COc3ccc(Br)cc3C)C(C)C)n2)c1,inactive: -1.19%
21,CCn1cc(C(=O)N2CCN(c3cc(C)ccc3C)CC2)c(=O)c2cc(S(=O)(=O)N3CCOCC3)ccc21,inactive: -0.334%
22,COc1ccc(Cl)cc1NC(=O)Cn1c(=O)n(Cc2ccco2)c(=O)c2cccnc21,inactive: 0.94%
23,COc1ccc(C(=O)NCCn2cc(SCC(=O)Nc3cccc(C)c3)c3ccccc32)cc1,inactive: 5.66%
24,COCCc1nn2c(=O)cc(COC(=O)c3ccc(OC)c(OC)c3)nc2s1,inactive: -0.376%

row,SMILES,"activity change, negative = inhibition"
1,Cc1ccc(C)n1-c1c(C(=O)NCCC(C)C)sc2ncccc12,inactive: 0%
2,CCOC(=O)C1CCN(C(=O)Cn2c(=O)cc(C)c3c(C)nn(C)c32)CC1,inactive: -15.8%
3,Cc1oc2ncn(CC(C)C)c(=O)c2c1C(=O)N1CCN(c2cccc(C(F)(F)F)c2)CC1,inactive: -5.57%
4,CCc1nn(-c2ccccc2)c2nc(-c3cccc(OC)c3)c3cc(OC)c(OC)cc3c12,inactive: 2.87%
5,Cc1cccc(-n2ncc3c(Nc4ccc(Oc5ccc(Cl)cc5)cc4)ncnc32)c1,inactive: 0.523%
6,COc1cc(-c2nc3nc[nH]n3c2Nc2ccc(C(C)C)cc2)ccc1O,inactive: -0.129%
7,Cc1ccc(CNC(=O)CCCCn2c(=O)c3ccccc3n(Cc3c(C)cc(C)cc3C)c2=O)cc1,inactive: 2.32%
8,COc1cccc(NC(=O)CSC2=Nc3ccccc3C3=NC(CC(=O)NCCc4ccccc4)C(=O)N23)c1 (stereo not given),inactive: -4.69%
9,COc1ccccc1N1CCN(C(=O)Cn2ncc3c([nH]c4ccccc43)c2=O)CC1,inactive: 2.02%
10,CCOC(=O)c1ccccc1NC(=O)Cn1c(=O)n(Cc2nc(-c3ccccc3)no2)c(=O)c2ccccc21,inactive: -10.8%
11,CCOCCCNC(=O)NC(C)c1c(-n2cccc2)sc2c1CCN(CC)C2 (stereo not given),inactive: 0.547%
12,COc1ccc(OC)c(S(=O)(=O)N2CCC(c3ccncc3)CC2)c1,inactive: -0.686%
13,CCc1ccc(-n2c(SCc3ccccc3F)nc3[nH]ncc3c2=O)cc1,inactive: -13.4%
14,O=C(CCc1nc(CN2CCN(S(=O)(=O)c3ccc(F)cc3)CC2)no1)N1CCCCC1,inactive: -14.3%
15,CCc1ccc(C(=O)c2cn(CC(=O)NCCc3ccc(OC)c(OC)c3)c3nc(C)ccc3c2=O)cc1,inactive: 3.45%
16,O=C(c1ccc2c(c1)N(Cc1ccccc1F)C(=O)c1ccccc1S2(=O)=O)N1CCCCC1,inactive: -5.7%
17,COc1cccc(NC(=O)CSC2=Nc3ccccc3N=C(c3ccc(F)cc3)C2)c1,inactive: -0.452%
18,O=c1nc2sc3ccccc3n2c(=O)n1-c1ccc(Cl)c(Cl)c1,inactive: -2.62%
19,COc1ccccc1NC(=O)Cn1c(=O)n(-c2cccc(C(C)=O)c2)c(=O)c2c3c(sc21)CN(C(C)=O)CC3,inactive: 2.86%
20,Cc1ccc(C2C=C(c3ccc(Cl)cc3)Nc3nc(NS(=O)(=O)c4ccccc4)nn32)cc1 (stereo not given),inactive: 2.19%
21,CCN1CCN(C(=O)c2cnn(-c3ccc(F)cc3)c2-n2cccc2)CC1,inactive: -3.12%
22,O=C(CCC1N=C2c3ccccc3N=C(SCC(=O)Nc3ccccc3F)N2C1=O)NCc1ccccc1 (stereo not given),inactive: 3.12%
23,CC(=O)Nc1ccc(NC(=O)c2oc3ccc4c(c3c2C)C(=O)CC(C)(C)O4)cc1,inactive: -2.38%
24,O=c1c(N2CCc3ccccc3C2)csc2ccccc12,inactive: 3.95%

row,SMILES,"activity change, negative = inhibition"
1,O=C(NCCc1ccccc1)c1ccc2c(c1)N(Cc1ccccc1F)C(=O)c1ccccc1S2=O (stereo not given),inactive: -1.44%
2,Cc1ccc(-c2ccc(=O)n(CC(=O)Nc3cccc(C#N)c3)n2)cc1,inactive: 3.11%
3,CNC(=O)C1CCC(Cn2c(=O)c3sccc3n(CC(=O)NCc3ccc(F)cc3)c2=O)CC1 (stereo not given),inactive: -0.255%
4,CCOc1ccc(-c2nc3c(c(SCC(=O)N4CCCCC4)n2)Cc2ccccc2O3)cc1,inactive: 2.92%
5,COc1ccc(NC(=O)c2ccc3c(=O)n4nc(Nc5cccc(Cl)c5C)sc4nc3c2)cc1,inactive: -6.22%
6,C=Cc1ccc(Cn2c(C(=O)O)c(CNCc3ccccc3)c3ccc(C)cc32)cc1,inactive: -24.7%
7,CC1=C(C(=O)Nc2cccnc2)C(c2ccccc2)n2nc(-c3ccc(O)cc3)nc2N1 (stereo not given),inactive: -3.63%
8,Cc1ccc(C2CCN(C(=O)c3cnn(-c4ccc(C)cc4)c3C3CCN(C(=O)OC(C)(C)C)CC3)C2)cc1 (stereo not given),inactive: 1.07%
9,Cc1ccc(-c2csc(=Nc3ccc(F)cc3)n2Cc2ccc3c(c2)OCO3)cc1C,inactive: -23.4%
10,Cc1c(Cl)cccc1NC(=O)c1ncn(-c2ccccc2)n1,inactive: 7.1%
11,COc1cccc(NC(=O)CC(C)S(=O)(=O)c2ccc3c(c2)NC(=O)CO3)c1 (stereo not given),inactive: -5.47%
12,Cc1cccc(C(=O)Nc2nnc(S(=O)(=O)N(C)Cc3ccco3)s2)c1,inactive: 0%
13,COc1ccc(CCNC(=O)CSc2nc(-c3ccc(F)cc3)cc(C(F)(F)F)n2)cc1OC,inactive: -7.82%
14,Cc1nn(-c2ccccc2)c2sc(C(=O)Nc3ccccc3Br)cc12,inactive: -28.6%
15,Cc1ccc(NC(=O)CN2C(=O)C3(SCC(=O)N3c3cccc(Cl)c3)c3ccccc32)cc1C (stereo not given),inactive: -6.21%
16,Cc1ccc(NS(=O)(=O)c2ccc3c(c2)CCCN3C(=O)C2CCC2)cc1Cl,inactive: -25.3%
17,Nc1c(C(=O)Nc2ccc(C(=O)O)cc2)sc2nc3c(cc12)CCCC3,inactive: -5.92%
18,COc1cc(OC)cc(C(=O)Nc2ccc(S(=O)(=O)Nc3ncccn3)cc2)c1,inactive: 0.125%
19,Cc1nc2nncn2c(NCc2ccc(F)cc2)c1C,inactive: -15.4%
20,COCCNc1nc2c(S(=O)(=O)c3ccc(C)c(C)c3)nnn2c2ccc(Cl)cc12,inactive: -2.52%
21,O=C(Nc1nnc(S(=O)(=O)Nc2ccccc2)s1)c1ccccc1Cl,inactive: -4.84%
22,CCc1noc(-c2ccc(N3CCCCC3C)c([N+](=O)[O-])c2)n1 (stereo not given),inactive: 0.357%
23,Cc1ccc(NC(=O)CCS(=O)(=O)c2cc3c4c(c2)CCN4C(=O)CC3)c(C)c1,inactive: 0%
24,O=C(NCc1ccc2c(c1)CCN2C(=O)c1ccc(Cl)cc1)c1cccc(F)c1,inactive: -0.106%

row,SMILES,"activity change, negative = inhibition"
1,CCCCN(C)C(=O)C1CCC(CNS(=O)(=O)c2ccc(Cl)cc2)CC1 (stereo not given),inactive: -11.2%
2,CCC(Oc1ccccc1)C(=O)Nc1cc(-c2ccccc2OC)nn1-c1ccccc1 (stereo not given),inactive: 1.69%
3,Cc1ccc(-c2nc3c(c(SCC(=O)Nc4ccccc4Cl)n2)Cc2c(CO)cnc(C)c2O3)cc1,inactive: 2.85%
4,CCOC(=O)c1c(S(=O)(=O)NCC(=O)NCc2cccc(C)c2)c(C)n(C)c1C,inactive: -0.837%
5,Cc1ccc(CS(=O)(=O)c2ncc(Cl)c(C(=O)Nc3nc4ccc(F)cc4s3)n2)cc1,inactive: -1.1%
6,O=C(COc1ccccc1)Nc1nnc(S(=O)(=O)N2CCCC2)s1,inactive: 9.92%
7,COc1ccccc1NC(=O)C(Cc1ccccc1)NS(=O)(=O)c1ccc2c(c1)c(=O)n(C)c(=O)n2C (stereo not given),inactive: -0.717%
8,O=C(Nc1ccc2oc(-c3ccc4ccccc4c3)nc2c1)c1ccccc1F,inactive: 0.435%
9,O=C(OCC1CCCO1)c1ccc2c(c1)N(Cc1ccccc1Cl)C(=O)c1ccccc1S2(=O)=O (stereo not given),inactive: 7.12%
10,CCCCOc1cccc(NC(=O)CSc2nnc(C)s2)c1,inactive: 12.2%
11,Cc1cc(Nc2cccc(C(F)(F)F)c2)nc2ccc(NC(=O)c3ccc(=O)[nH]c3)cc12,inactive: 0.848%
12,O=C(NCc1ccc(F)cc1)c1c(O)nc2ccccn2c1=O,inactive: 1.12%
13,CN(Cc1ccccc1)c1ncnc2onc(-c3ccc(F)cc3)c12,inactive: -6.54%
14,COc1ccc(OC)c(NC(=O)CSc2nc3ccccc3nc2N2CCCCC2)c1,inactive: -1.97%
15,CCCC(=O)OCc1cnc(C)c2oc(=O)c(C(=O)Nc3ccccc3)cc12,inactive: 12.9%
16,COc1ccc(NC(=O)COc2ccc(S(=O)(=O)NC3CCCCC3)cc2)cc1OC,inactive: -10.7%
17,CC(NC(=O)CCNS(=O)(=O)c1cccc2nsnc12)c1ccccc1 (stereo not given),inactive: -7.49%
18,O=C(Nc1cccc(Cl)c1)c1cnc[nH]1,inactive: 15.8%
19,COc1ccc(Br)cc1C1Sc2ccccc2NC2=C1C(=O)c1ccccc12 (stereo not given),inactive: -12.6%
20,Cc1ccc2c(=O)cc(CSCC(=O)Nc3nnc(C)s3)[nH]c2c1,inactive: -6.94%
21,COc1cc(Cl)c(C)cc1NC(=O)Cn1ncc2c([nH]c3ccccc32)c1=O,inactive: -0.567%
22,COc1cccc(C(c2c(O)cc(C)n(Cc3ccco3)c2=O)N2CCN(c3ccccc3)CC2)c1 (stereo not given),inactive: -5.3%
23,O=C(CSc1nccn1Cc1ccc(Cl)cc1)Nc1ccc2c(c1)OCCO2,inactive: -0.394%
